Results from the supplement of paper PMC11417369.
Some of the results follow.

system: PfHDP1 homeodomain (GST-tagged); assay: gcPBM binding intensity (ln(normalized median fluorescence intensity)); higher = stronger DNA binding
Outline: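 For binding intensity, the highest Masliner-normalised natural-log median intensity across replicate spots of either probe orientation was taken. Protein bound to the array was stained with Alexa488 anti-GST antibody and scanned at 488 nm. The protein, GST-tagged P. falciparum DNA-binding domains from E. coli at about 25 μg on average, had been applied for 1 h to an Agilent 4 × 180k array of primer-extended double-stranded 36-bp intergenic genomic probes and negative controls.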

Sequence | gcPBM binding intensity (ln)
AAAGTTATAATACGTACACACCTTATCTTTTTGGCT [CACACA_site6267] | 6.41
ATATCGTATATGAGTGGTACTAATATGTAAAAAAAA [XGTACX_site7830] | 6.47
TATTATCTCTTATGAACACACATTTTTATTTTCAAA [CACACA_site3353] | 6.54
ATAATAATAAAGTGAACACACACATATAATATATAT [CACACA_site9378] | 6.58
ATTATACACGCGCGCACACACAACAAAAAAAAAAAA [CACACA_site7630] | 7.23
TAAATAAACAAATTAACACACAGAATTTTTTTTTTC [CACACA_site1674] | 6.18
TGGTAACAGCATAGAAAATGGACAAACGAAATATAA [GTGCAC_negctrl_site537] | 6.96
AATGTTAAGGAGGGGAGTACATAAAATTCTCTCTCC [XGTACX_site1990] | 6.36
AAAAGCTATAAAAATCGGTAATTTATAACAGGAATT [CACACA_negctrl_site469] | 6.44
ATTATGTACTATTATACACACGTTTAATTGTAAATT [CACACA_site4278] | 6.77
TGATTCTAACTTATGGTGCAACATTATGGACACCGT | 10.5
TTAATATTGTTATAGCGTACAAATAAACATATTAAA [XGTACX_site8153] | 6.33
TTACATATTTATGATTGTACACATTTATAAACAATA [XGTACX_site2190] | 6.27
TATTTAAAAATAAAATGTACATATTATTATGCATTA [XGTACX_site1303] | 6.28
TACATACATAAACACACACACACATATATATATATA [CACACA_site8953] | 9.31
ATTTTATAAACAAATGAACACACAAACATATATATA [CACACA_site9036] | 7.06
CATTAATGACATGATTGTACATAAGCTTTTTTACAT [XGTACX_site1888] | 6.62
ACCCATTCAAATTTCGCACACACATACAAAAAAAAA [CACACA_site3094] | 7.39
ATCAAAAGAAAACACACACACATACATATATATATA [CACACA_site3795] | 8.82
ATTTGTGTATATTAGAGTACATAAAATTAGAGGAAC [XGTACX_site1654] | 6.99
TTCATATAATTATATACATGCATAAATTCTAAGTAA [TGCATGCA_site622] | 6.78
TTCATATATTATTATGCATGTTCATAAATTATCTAA [TGCATGCA_site896] | 6.53

Sequence | gcPBM binding intensity (ln)
TAAAAATGTGGACACACACACATATATATATTTAAT [CACACA_site4941] | 6.52
TTTCTAATTATTTCCCTTCAAATATATTAATATCGT [CACACA_negctrl_site429] | 6.64
ATATATATTATTATATGTACATATAAATATATTAAT [XGTACX_site5270] | 6.45
TTAGTATATACATTTGCACACATTATTTTTTAACAT [CACACA_site2618] | 10.5
ATATTGTAAGTAAAATGTAATAAATATAATAAAATA [CACACA_negctrl_site697] | 6.4
AAAAGGAAAATACTAGCACACAATATATAATAAACA [CACACA_site285] | 6.73
TCCTTGCATTTTAAAACACACAAAAATTAATTGTTA [CACACA_site7152] | 7.01
TCATTAATATTTCATAGTACAATTTTGTCTAATTGT [XGTACX_site6720] | 6.29
TTATATTATACATACACACCCATATAACATGTTTTT [CACACA_site6539] | 7.17
AATGGAAAAAAAAAAATAAATACAAATAAATACAAA [GTGCAC_negctrl_site407] | 6.43
TATTTTTTTCTTACTACACACATATATATGCTTTCC [CACACA_site4058] | 7.15
ATAATAATATTGTGTACACAATAATTTGTCAAATCA [CACACA_site6019] | 6.96
ACATATACAAGACACACACACAACGTTTTAATAAAT [CACACA_site7017] | 6.96
AAAAAAAAAAAAAAATGTACATATATATATATATAT [XGTACX_site876] | 9.34
AAGGAATATGTATATACACACAGGTACATATATATA [CACACA_site441] | 6.72
AAAAAATAATAATAATGTACAAATAAAATAAAAACA [XGTACX_site6568] | 6.74
ATATATTTTTACCATACACACATATAATAAATATAT [CACACA_site3722] | 6.94
TCGTGTGAAAATATTACACACATTTACTATAGTATC [CACACA_site7590] | 6.65
ATAAAAATTGAAACATGTACACATATTCATTTTATA [XGTACX_site7968] | 6.01
ATTATAAATTAAAATACACACATATATACCTAATAT [CACACA_site5541] | 6.56
AGAATAAAAATACAAGCACACATGTATGAAATATAT [CACACA_site3213] | 6.72
ATATATAATTACACAAATAAAAAAATAAAATGAAAT [CACACA_negctrl_site1513] | 6.61

Sequence | gcPBM binding intensity (ln)
ATCATGTTATATATGTGTACATATATATGATATAAT [XGTACX_site991] | 6.46
TGAACAATGTATAATTGTACGCAACGAAAATAAAAA [XGTACX_site1559] | 6.98
CCCCCCGTGTTATATACACACATAATCAAATAAAAT [CACACA_site4111] | 9.33
TCTTATTAAAATATTTATATAGGTAATCACAATATT [GTGCAC_negctrl_site568] | 6.37
AGAAATAAGAAATATACACACATATATATATATATA [CACACA_site2808] | 9.3
TATAAAATAAGACATGCATGTTATACATATATATAT [TGCATGCA_site314] | 8.51
AAAAAAAGAAAAATTGCACACACTTATAAAAATATA [CACACA_site4014] | 9.27
TTTTGTTATGAGAGGGTGCTAATATTTGGATATAAA | 6.52
AAAAAAAAAAAAAGTAGTACATAATATGTTCCTCCT [XGTACX_site8356] | 6.02
TACTTACATATAATAACACACAAGAAAAAAATAAAA [CACACA_site1033] | 6.93
ATTTTTGTACACTTCTTTTTTTTTTTTCTTTTATGT [CACACA_negctrl_site1323] | 7.08
TACCCATGCATTTTTGCACACACATATATATATAAA [CACACA_site1429] | 10.7
AGACAGCGCACAAACACACAAACACCCACCCACATA [CACACA_site451] | 7.82
AGCACAAGCACAAGCACACATTTATATATAAATACA [CACACA_site4642] | 6.68
ACAAAATATACAAAATGTACAAAATTTACAAAATAT [XGTACX_site6466] | 6.21
AAAAAAAAAAATAAAGAAATCAAAATTGATGAATAA [GTGCAC_negctrl_site692] | 6.01
TATATATATTTATGCTGTACCAAATAAGAATAGAAA [XGTACX_site7731] | 6.36
TAAATGATTGCATAATGTACATATAATTTTTTTTTT [XGTACX_site1988] | 6.59
TATATAAAAAATAAATGTACACATGTAATAATAAAA [XGTACX_site2640] | 7.09
TGTGTAAACATATTCACACACATAAATTCGCATATA [CACACA_site6961] | 6.39
TATAAATATACACCCACACACATATATATATATATA [CACACA_site3745] | 9.4
AATCAATTAATATTAGCATAAAATTTTATTATTTTG [XGTACX_negctrl_site479] | 6.47

Sequence | gcPBM binding intensity (ln)
TGACATAAAAAATATACACACTATAATATATATACT [CACACA_site4898] | 6.33
TGTATCCATATTTGTTCACACACACCCATATTTATA [CACACA_site9190] | 7.03
ATAATATGTATGGTCACACAGACAAGGAAAGAATAA [CACACA_site5164] | 6.99
GTATATTTTAATATGACACACATATTATATATATAT [CACACA_site2483] | 8.26
ATTTATTATGAACATACACACAAAAAAAAAAAGTAT [CACACA_site2054] | 6.96
TAACTTTGAAAAGATGGTACACAATAATATATATAT [XGTACX_site8667] | 8.08
ATTGTTATTTATTGTGTGCGCATTAATACATACATA [GTGCAC_site9982] | 7.61
TAATGTTGAGAATTTTGTACATATAGATCAATTTAT [XGTACX_site5426] | 6.33
TTTAATATTATTATTTTACACACTTTTTTCCTTTTA [CACACA_site8780] | 6.42
CAAATAATATTATGAAGTACTTCAAATTTTGAAAGA [XGTACX_site2530] | 6.59
TCTTATAAACTCTGCACACATAATATATTAAATGAG [CACACA_site1936] | 8.5
AATATAGGTATATCCACACACATATTTATATTTATA [CACACA_site6867] | 6.44
TAATATATGTTATATACACACATATAAATATAAATA [CACACA_site6339] | 6.63
TGTGTATAAGTCACTTGTACTAGTAGTAAAAAAAAA [XGTACX_site4341] | 6.38
TGAAGTATAATTTATCTAATATGTTATATTTTATTT [TGCATGCA_negctrl_site56] | 5.79
GTGAGTGAAATATGCAAACACACACCCGAAAAATGT [CACACA_site3197] | 6.76
TATGATTTTAATGAAACACACAATTTTATGTTAATA [CACACA_site311] | 6.14
TATAAAGGTATACAAAGTACAAAATACATATATACT [XGTACX_site6431] | 6.14
TAAAGTTTTTCCTATCTATATTTATATTATAAATGA [XGTACX_negctrl_site20] | 6.14
AACAGATAATATAAAAAAAAAAAAAAAAATAATTAA [GTGCAC_negctrl_site69] | 5.87
TGAATAAATCAAAGCACACATACACAGACATATATA [CACACA_site4316] | 6.85
CTTGTCATTTGGCACACACACATGTATAGGTTATTA [CACACA_site5656] | 6.72
